Assay results from article PMC9911399, “Two distinct binding modes provide the RNA-binding protein RbFox with extraordinary sequence specificity”.
Where a chain is given by its changes, count along the chain named. Some of the results follow.

T1: RBFOX1 RRM RbFoxmut (Fox-RRM*) (Homo sapiens, UniProt Q9NWB1 109-208, R118D;E147R;N151S;E152T)
T1 sequence: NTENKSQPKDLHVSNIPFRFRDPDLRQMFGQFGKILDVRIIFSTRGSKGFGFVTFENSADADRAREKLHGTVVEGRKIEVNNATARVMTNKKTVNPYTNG

B1: AUUGUUG (DNA:RNA)
RNA: GGGAGACCGGAAUUCAGAUUGUCCAUUGUUGUUAAAUCCCGUCGUAGCCACCA
DNA 1: CAATCTGAATTCCGGTCTCCC
DNA 2: TGGTGGCTACGACGGGATT
B2: AAGGGGG (DNA:RNA)
RNA: B1 RNA with U26A, U27G, U29G, U30G
DNA 1: CAATCTGAATTCCGGTCTCCC
DNA 2: TGGTGGCTACGACGGGATT
B3: CGGCUAG (DNA:RNA)
RNA: B1 RNA with A25C, U26G, U27G, G28C, U30A
DNA 1: CAATCTGAATTCCGGTCTCCC
DNA 2: TGGTGGCTACGACGGGATT
B4: CUCACGA (DNA:RNA)
RNA: B1 RNA with A25C, U27C, G28A, U29C, U30G, G31A
DNA 1: CAATCTGAATTCCGGTCTCCC
DNA 2: TGGTGGCTACGACGGGATT
B5: UUCGCUG (DNA:RNA)
RNA: B1 RNA with A25U, U27C, U29C
DNA 1: CAATCTGAATTCCGGTCTCCC
DNA 2: TGGTGGCTACGACGGGATT
B6: AAUCCUU (DNA:RNA)
RNA: B1 RNA with U26A, G28C, U29C, G31U
DNA 1: CAATCTGAATTCCGGTCTCCC
DNA 2: TGGTGGCTACGACGGGATT
B7: AUCUACC (DNA:RNA)
RNA: B1 RNA with U27C, G28U, U29A, U30C, G31C
DNA 1: CAATCTGAATTCCGGTCTCCC
DNA 2: TGGTGGCTACGACGGGATT
B8: AGUGCUG (DNA:RNA)
RNA: B1 RNA with U26G, U29C
DNA 1: CAATCTGAATTCCGGTCTCCC
DNA 2: TGGTGGCTACGACGGGATT
B9: UCCAAGG (DNA:RNA)
RNA: B1 RNA with A25U, U26C, U27C, G28A, U29A, U30G
DNA 1: CAATCTGAATTCCGGTCTCCC
DNA 2: TGGTGGCTACGACGGGATT
B10: GAAGACU (DNA:RNA)
RNA: B1 RNA with A25G, U26A, U27A, U29A, U30C, G31U
DNA 1: CAATCTGAATTCCGGTCTCCC
DNA 2: TGGTGGCTACGACGGGATT
B11: UAAUGCG (DNA:RNA)
RNA: B1 RNA with A25U, U26A, U27A, G28U, U29G, U30C
DNA 1: CAATCTGAATTCCGGTCTCCC
DNA 2: TGGTGGCTACGACGGGATT
B12: AGCACAG (DNA:RNA)
RNA: B1 RNA with U26G, U27C, G28A, U29C, U30A
DNA 1: CAATCTGAATTCCGGTCTCCC
DNA 2: TGGTGGCTACGACGGGATT
B13: CGUCCCU (DNA:RNA)
RNA: B1 RNA with A25C, U26G, G28C, U29C, U30C, G31U
DNA 1: CAATCTGAATTCCGGTCTCCC
DNA 2: TGGTGGCTACGACGGGATT
B14: CGACCAC (DNA:RNA)
RNA: GGGAGACCGGAAUUCAGAUUGUCCCGACCACUUAAAUCCCGUCGUAGCCACCA
DNA 1: CAATCTGAATTCCGGTCTCCC
DNA 2: TGGTGGCTACGACGGGATT
B15: GCGGAAU (DNA:RNA)
RNA: B1 RNA with A25G, U26C, U27G, U29A, U30A, G31U
DNA 1: CAATCTGAATTCCGGTCTCCC
DNA 2: TGGTGGCTACGACGGGATT
B16: UUACUGG (DNA:RNA)
RNA: B1 RNA with A25U, U27A, G28C, U30G
DNA 1: CAATCTGAATTCCGGTCTCCC
DNA 2: TGGTGGCTACGACGGGATT
B17: GCCCUCU (DNA:RNA)
RNA: B1 RNA with A25G, U26C, U27C, G28C, U30C, G31U
DNA 1: CAATCTGAATTCCGGTCTCCC
DNA 2: TGGTGGCTACGACGGGATT
B18: ACCGAAG (DNA:RNA)
RNA: B1 RNA with U26C, U27C, U29A, U30A
DNA 1: CAATCTGAATTCCGGTCTCCC
DNA 2: TGGTGGCTACGACGGGATT
B19: ACAAACG (DNA:RNA)
RNA: B1 RNA with U26C, U27A, G28A, U29A, U30C
DNA 1: CAATCTGAATTCCGGTCTCCC
DNA 2: TGGTGGCTACGACGGGATT
B20: CGUCUAA (DNA:RNA)
RNA: B14 RNA with A27U, C29U, C31A
DNA 1: CAATCTGAATTCCGGTCTCCC
DNA 2: TGGTGGCTACGACGGGATT
B21: ACUUGCG (DNA:RNA)
RNA: B1 RNA with U26C, G28U, U29G, U30C
DNA 1: CAATCTGAATTCCGGTCTCCC
DNA 2: TGGTGGCTACGACGGGATT
B22: UAAUCGG (DNA:RNA)
RNA: B14 RNA with C25U, G26A, C28U, A30G, C31G
DNA 1: CAATCTGAATTCCGGTCTCCC
DNA 2: TGGTGGCTACGACGGGATT
B23: UUUACGU (DNA:RNA)
RNA: B1 RNA with A25U, G28A, U29C, U30G, G31U
DNA 1: CAATCTGAATTCCGGTCTCCC
DNA 2: TGGTGGCTACGACGGGATT
B24: UGUGGAU (DNA:RNA)
RNA: B1 RNA with A25U, U26G, U29G, U30A, G31U
DNA 1: CAATCTGAATTCCGGTCTCCC
DNA 2: TGGTGGCTACGACGGGATT
B25: ACUCCUU (DNA:RNA)
RNA: B1 RNA with U26C, G28C, U29C, G31U
DNA 1: CAATCTGAATTCCGGTCTCCC
DNA 2: TGGTGGCTACGACGGGATT
B26: CACUGCU (DNA:RNA)
RNA: B14 RNA with G26A, A27C, C28U, C29G, A30C, C31U
DNA 1: CAATCTGAATTCCGGTCTCCC
DNA 2: TGGTGGCTACGACGGGATT
B27: CCGCGAA (DNA:RNA)
RNA: B14 RNA with G26C, A27G, C29G, C31A
DNA 1: CAATCTGAATTCCGGTCTCCC
DNA 2: TGGTGGCTACGACGGGATT
B28: AGCGCCC (DNA:RNA)
RNA: B14 RNA with C25A, A27C, C28G, A30C
DNA 1: CAATCTGAATTCCGGTCTCCC
DNA 2: TGGTGGCTACGACGGGATT
B29: UGGAGCA (DNA:RNA)
RNA: B14 RNA with C25U, A27G, C28A, C29G, A30C, C31A
DNA 1: CAATCTGAATTCCGGTCTCCC
DNA 2: TGGTGGCTACGACGGGATT
B30: UGCUCAU (DNA:RNA)
RNA: B14 RNA with C25U, A27C, C28U, C31U
DNA 1: CAATCTGAATTCCGGTCTCCC
DNA 2: TGGTGGCTACGACGGGATT
B31: CUAGCGU (DNA:RNA)
RNA: B14 RNA with G26U, C28G, A30G, C31U
DNA 1: CAATCTGAATTCCGGTCTCCC
DNA 2: TGGTGGCTACGACGGGATT

The binders below were run against T1, RBFOX1 RRM RbFoxmut (Fox-RRM*) (assay: EMSA; HiTS-Eq, 1 nM pool, 10 min; buffer printed only for the single-RNA assays: 10 mM Tris pH 7.5, 150 mM NaCl, 3.4 mM EDTA, 0.001% NP-40, 30 C). Conditions: tags: His6 N-terminal (pET28a); label: 5' 32P.
How it was run: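 A pool of RNA with 7 randomized nucleotides, 5′-radiolabelled and with DNA-annealed flanks, was equilibrated at 1 nM for 10 min in 50 µL with purified RbFox RRM, wild type or mutant, across increasing protein concentrations. Free RNA was separated by 8% native PAGE, excised, reverse-transcribed, barcoded by PCR and sequenced. Relative association constants were obtained from read-count changes of each RNA species versus the control reaction and normalised to the cognate motif.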

Row | Binder | binding signal
1 | B1 | 0.19 KA relative to UGCAUGU
2 | B2 | 0.086 KA relative to UGCAUGU
3 | B3 | 0.107 KA relative to UGCAUGU
4 | B4 | 0.0821 KA relative to UGCAUGU
5 | B5 | 0.117 KA relative to UGCAUGU
6 | B6 | 0.0749 KA relative to UGCAUGU
7 | B7 | 0.0752 KA relative to UGCAUGU
8 | B8 | 0.139 KA relative to UGCAUGU
9 | B9 | 0.0683 KA relative to UGCAUGU
10 | B10 | 0.0406 KA relative to UGCAUGU
11 | B11 | 0.0888 KA relative to UGCAUGU
12 | B12 | 0.0544 KA relative to UGCAUGU
13 | B13 | 0.0565 KA relative to UGCAUGU
14 | B14 | 0.0643 KA relative to UGCAUGU
15 | B15 | 0.106 KA relative to UGCAUGU
16 | B16 | 0.101 KA relative to UGCAUGU

Row | Binder | binding signal
17 | B17 | 0.0586 KA relative to UGCAUGU
18 | B18 | 0.0896 KA relative to UGCAUGU
19 | B19 | 0.0999 KA relative to UGCAUGU
20 | B20 | 0.105 KA relative to UGCAUGU
21 | B21 | 0.156 KA relative to UGCAUGU
22 | B22 | 0.0737 KA relative to UGCAUGU
23 | B23 | 0.112 KA relative to UGCAUGU
24 | B24 | 0.118 KA relative to UGCAUGU
25 | B25 | 0.0436 KA relative to UGCAUGU
26 | B26 | 0.119 KA relative to UGCAUGU
27 | B27 | 0.0844 KA relative to UGCAUGU
28 | B28 | 0.0626 KA relative to UGCAUGU
29 | B29 | 0.171 KA relative to UGCAUGU
30 | B30 | 0.121 KA relative to UGCAUGU
31 | B31 | 0.0865 KA relative to UGCAUGU
